# Test results reported in the supplement of paper PMC8728848.
# The list shows a part of the results.
# B1: CPA (Cicer arietinum) (protein)
# chain: MAFSYLNLVLVTLTTLFFLQTTKVKSQKSVSFHITNFTISRPSITLQGTAEFLPNVLLLNDIEHPVFVVGRALYSKPITLWNNKTGKVASFVTSFTFDVQDLKKTVPGHGLVFFLAPSGSEIPFSSDGGNLGVVDGKNAFNRFVGVEFDNFVNSWDPKYSHVGINVNSLISTKTVKWNRVSGELVKVSIVYDSVSTTLTVIVTYKNGQISILSQLVDLKAVLPDTVNIGFSASTTLVSPRQLHNIHSWSFTSTFET
# Columns and labels:
# Assay in all cases: glycan array binding signal (z-score within array); higher = stronger binding
# Conditions in all cases: glycan notation: IUPAC condensed, linker removed
# Gal6S(b1-4)GlcNAc = molecular target: Gal6S(b1-4)GlcNAc
# Method in brief: (§1)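 Negative Z-scores can be read as non-binding. The Z-score is calculated within each array and then averaged across arrays of one protein sequence at different concentrations or buffers and across linkers. Arrays, 3228 in all, were curated from the Consortium for Functional Glycomics database and kept only where the protein sequence was available.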
# Gal6S(b1-4)GlcNAc6S = molecular target: Gal6S(b1-4)GlcNAc6S
# Method in brief: as §1
# GalNAc(a1-3)Gal = molecular target: GalNAc(a1-3)Gal
# Method in brief: as §1
# GalNAc(a1-3)GalNAc = molecular target: GalNAc(a1-3)GalNAc
# Method in brief: as §1
# [1] = molecular target: GalNAc(a1-3)GalNAc(a1-3)Gal(a1-4)Gal(b1-4)GlcNAc
# Method in brief: as §1
# [2] = molecular target: GalNAc(a1-3)GalNAc(b1-3)Gal(a1-4)Gal(b1-4)Glc
# Method in brief: as §1
# GalNAc(b1-3)Gal = molecular target: GalNAc(b1-3)Gal
# Method in brief: as §1
# [3] = molecular target: GalNAc(b1-3)Gal(a1-4)Gal(b1-4)GlcNAc
# Method in brief: as §1
# [4] = molecular target: GalNAc(b1-3)Gal(a1-4)Gal(b1-4)GlcNAc(b1-3)Gal(b1-4)Glc
# Method in brief: as §1
# [5] = molecular target: GalNAc(b1-3)Gal(a1-6)Gal(b1-4)Glc
# Method in brief: as §1
# GalNAc(b1-3)GalNAc = molecular target: GalNAc(b1-3)GalNAc
# Method in brief: as §1
# GalNAc(b1-3)GlcNAc = molecular target: GalNAc(b1-3)GlcNAc
# Method in brief: as §1
# GalNAc(b1-4)Gal(b1-4)Glc = molecular target: GalNAc(b1-4)Gal(b1-4)Glc
# Method in brief: as §1
# GalNAc(b1-4)GlcNAc = molecular target: GalNAc(b1-4)GlcNAc
# Method in brief: as §1
# [6] = molecular target: GalNAc(b1-4)GlcNAc(b1-2)Man
# Method in brief: as §1
# [7] = molecular target: GalNAc(b1-4)GlcNAc(b1-2)Man(a1-3)[GalNAc(b1-4)GlcNAc(b1-2)Man(a1-6)]Man(b1-4)GlcNAc(b1-4)GlcNAc
# Method in brief: as §1
# [8] = molecular target: GalNAc(b1-4)GlcNAc(b1-3)GalNAc(b1-4)GlcNAc
# Method in brief: as §1
# GalNAc(b1-4)GlcNAc6S = molecular target: GalNAc(b1-4)GlcNAc6S
# Method in brief: as §1
# GalNAc(b1-6)GalNAc = molecular target: GalNAc(b1-6)GalNAc
# Method in brief: as §1
# GalNAc3S(b1-4)GlcNAc = molecular target: GalNAc3S(b1-4)GlcNAc
# Method in brief: as §1
# GalNAc3S(b1-4)GlcNAc3S = molecular target: GalNAc3S(b1-4)GlcNAc3S
# Method in brief: as §1
# [9] = molecular target: GalNAc3S(b1-4)[Fuc(a1-3)]GlcNAc
# Method in brief: as §1
# GalNAc4S6S(b1-4)GlcNAc = molecular target: GalNAc4S6S(b1-4)GlcNAc
# Method in brief: as §1
# GalNAc6S(b1-4)GlcNAc = molecular target: GalNAc6S(b1-4)GlcNAc
# Method in brief: as §1
# Glc(a1-4)Glc = molecular target: Glc(a1-4)Glc
# Method in brief: as §1
# [10] = molecular target: Glc(a1-4)Glc(a1-4)Glc(a1-4)Glc
# Method in brief: as §1
# Glc(a1-6)Glc(a1-6)Glc = molecular target: Glc(a1-6)Glc(a1-6)Glc
# Method in brief: as §1
# [11] = molecular target: Glc(a1-6)Glc(a1-6)Glc(a1-6)Glc
# Method in brief: as §1
# Glc(b1-4)Glc = molecular target: Glc(b1-4)Glc
# Method in brief: as §1
# Glc(b1-6)Glc = molecular target: Glc(b1-6)Glc
# Method in brief: as §1
# GlcA(b1-3)Gal = molecular target: GlcA(b1-3)Gal
# Method in brief: as §1
# GlcA(b1-3)GlcNAc = molecular target: GlcA(b1-3)GlcNAc
# Method in brief: as §1
# GlcA(b1-6)Gal = molecular target: GlcA(b1-6)Gal
# Method in brief: as §1
# [12] = molecular target: GlcA3S(b1-3)Gal(b1-4)GlcNAc(b1-2)Man
# Method in brief: as §1
# [13] = molecular target: GlcA3S(b1-3)Gal(b1-4)GlcNAc(b1-3)Gal(b1-4)Glc
# Method in brief: as §1
# [14] = molecular target: GlcNAc(a1-3)Gal(b1-4)GlcNAc
# Method in brief: as §1
# [15] = molecular target: GlcNAc(a1-4)Gal(b1-3)GlcNAc
# Method in brief: as §1
binder,measurement,setting,value
B1,glycan array binding signal (z-score),Gal6S(b1-4)GlcNAc,-0.391
same,glycan array binding signal (z-score),Gal6S(b1-4)GlcNAc6S,-0.461
same,glycan array binding signal (z-score),GalNAc(a1-3)Gal,-0.194
same,glycan array binding signal (z-score),GalNAc(a1-3)GalNAc,-0.504
same,glycan array binding signal (z-score),[1],-0.604
same,glycan array binding signal (z-score),[2],-0.586
same,glycan array binding signal (z-score),GalNAc(b1-3)Gal,-0.473
same,glycan array binding signal (z-score),[3],-0.307
same,glycan array binding signal (z-score),[4],-0.323
same,glycan array binding signal (z-score),[5],-0.385
same,glycan array binding signal (z-score),GalNAc(b1-3)GalNAc,-0.508
same,glycan array binding signal (z-score),GalNAc(b1-3)GlcNAc,0.009
same,glycan array binding signal (z-score),GalNAc(b1-4)Gal(b1-4)Glc,0.277
same,glycan array binding signal (z-score),GalNAc(b1-4)GlcNAc,1.17
same,glycan array binding signal (z-score),[6],1.55
same,glycan array binding signal (z-score),[7],2.78
same,glycan array binding signal (z-score),[8],0.687
same,glycan array binding signal (z-score),GalNAc(b1-4)GlcNAc6S,0.235
same,glycan array binding signal (z-score),GalNAc(b1-6)GalNAc,-0.31
same,glycan array binding signal (z-score),GalNAc3S(b1-4)GlcNAc,-0.515
same,glycan array binding signal (z-score),GalNAc3S(b1-4)GlcNAc3S,-0.865
same,glycan array binding signal (z-score),[9],-0.492
same,glycan array binding signal (z-score),GalNAc4S6S(b1-4)GlcNAc,-0.706
same,glycan array binding signal (z-score),GalNAc6S(b1-4)GlcNAc,2.2
same,glycan array binding signal (z-score),Glc(a1-4)Glc,-0.433
same,glycan array binding signal (z-score),[10],0.27
same,glycan array binding signal (z-score),Glc(a1-6)Glc(a1-6)Glc,-0.458
same,glycan array binding signal (z-score),[11],-0.424
same,glycan array binding signal (z-score),Glc(b1-4)Glc,-0.369
same,glycan array binding signal (z-score),Glc(b1-6)Glc,-0.614
same,glycan array binding signal (z-score),GlcA(b1-3)Gal,-0.077
same,glycan array binding signal (z-score),GlcA(b1-3)GlcNAc,-0.543
same,glycan array binding signal (z-score),GlcA(b1-6)Gal,-0.263
same,glycan array binding signal (z-score),[12],-0.733
same,glycan array binding signal (z-score),[13],-0.388
same,glycan array binding signal (z-score),[14],1.92
same,glycan array binding signal (z-score),[15],0.078
